From patent US8226943B2, “Antibodies to notch receptors” (OncoMed Pharmaceuticals, Inc., priority 2008, dated 2012)

How the values were obtained:
human Notch2 = target: T1, human Notch2 (Homo sapiens, UniProt Q04721); assay: FACS binding to human Notch2 on stably transfected HEK-293 cells; details: HEK-293 stably overexpressing human Notch2
T1 construct: expressed in transfected cells; host or cells: HEK-293, stably transfected
Description: (§1) A particular Fab (59R1) was identified that bound the human Notch2 receptor and blocked binding of Jagged1 to human Notch2. Binding of the 59R1 Fab to human Notch2 was verified by FACS assay using a stable human cell line HEK-293 which overexpressed human Notch2 (hN2) (FIG. 1A). Fab binding was detected by phycoerythrin (PE)-conjugated goat anti-human Fab (Jackson Immunochemicals). […] Ligand binding and blocking was determined by incubating hJagged 1 extracellular domain (ECD) fused to human Fc constant region with the cells and Fabs selected from the phage library and using PE-conjugated goat anti-human Fc gamma specific antibodies (Jackson Immunochemicals) for detection.
In addition, the 59R1 IgG2 antibody was assayed for its ability to block binding of DLL4 to the human Notch 2 receptor by FACS analysis. HEK-293 cells stably overexpressing human Notch2 were incubated with the antibody at various concentration and then detected for hNotch2 binding (FIG. 1C) by PE-conjugated goat anti-human Fc gamma specific antibody, or ligand blocking activity (FIG. 1D). Ligand blocking was determined by incubating the cells with human DLL4 ECD tagged with the rabbit Fc constant region and the 59R1 antibody at a range of concentrations, and then detecting the hDLL4 by PE-conjugated donkey anti-rabbit antibody. […]

[1] = target: T2, binding of Jagged1 to human Notch2 (Homo sapiens, UniProt Q04721); assay: FACS blocking of hJagged1 ECD-Fc binding to human Notch2 on HEK-293 cells; details: HEK-293 stably overexpressing human Notch2
T2 construct: expressed in transfected cells; host or cells: HEK-293, stably transfected with human Notch2
T2 sequence (Q04721 26-2471): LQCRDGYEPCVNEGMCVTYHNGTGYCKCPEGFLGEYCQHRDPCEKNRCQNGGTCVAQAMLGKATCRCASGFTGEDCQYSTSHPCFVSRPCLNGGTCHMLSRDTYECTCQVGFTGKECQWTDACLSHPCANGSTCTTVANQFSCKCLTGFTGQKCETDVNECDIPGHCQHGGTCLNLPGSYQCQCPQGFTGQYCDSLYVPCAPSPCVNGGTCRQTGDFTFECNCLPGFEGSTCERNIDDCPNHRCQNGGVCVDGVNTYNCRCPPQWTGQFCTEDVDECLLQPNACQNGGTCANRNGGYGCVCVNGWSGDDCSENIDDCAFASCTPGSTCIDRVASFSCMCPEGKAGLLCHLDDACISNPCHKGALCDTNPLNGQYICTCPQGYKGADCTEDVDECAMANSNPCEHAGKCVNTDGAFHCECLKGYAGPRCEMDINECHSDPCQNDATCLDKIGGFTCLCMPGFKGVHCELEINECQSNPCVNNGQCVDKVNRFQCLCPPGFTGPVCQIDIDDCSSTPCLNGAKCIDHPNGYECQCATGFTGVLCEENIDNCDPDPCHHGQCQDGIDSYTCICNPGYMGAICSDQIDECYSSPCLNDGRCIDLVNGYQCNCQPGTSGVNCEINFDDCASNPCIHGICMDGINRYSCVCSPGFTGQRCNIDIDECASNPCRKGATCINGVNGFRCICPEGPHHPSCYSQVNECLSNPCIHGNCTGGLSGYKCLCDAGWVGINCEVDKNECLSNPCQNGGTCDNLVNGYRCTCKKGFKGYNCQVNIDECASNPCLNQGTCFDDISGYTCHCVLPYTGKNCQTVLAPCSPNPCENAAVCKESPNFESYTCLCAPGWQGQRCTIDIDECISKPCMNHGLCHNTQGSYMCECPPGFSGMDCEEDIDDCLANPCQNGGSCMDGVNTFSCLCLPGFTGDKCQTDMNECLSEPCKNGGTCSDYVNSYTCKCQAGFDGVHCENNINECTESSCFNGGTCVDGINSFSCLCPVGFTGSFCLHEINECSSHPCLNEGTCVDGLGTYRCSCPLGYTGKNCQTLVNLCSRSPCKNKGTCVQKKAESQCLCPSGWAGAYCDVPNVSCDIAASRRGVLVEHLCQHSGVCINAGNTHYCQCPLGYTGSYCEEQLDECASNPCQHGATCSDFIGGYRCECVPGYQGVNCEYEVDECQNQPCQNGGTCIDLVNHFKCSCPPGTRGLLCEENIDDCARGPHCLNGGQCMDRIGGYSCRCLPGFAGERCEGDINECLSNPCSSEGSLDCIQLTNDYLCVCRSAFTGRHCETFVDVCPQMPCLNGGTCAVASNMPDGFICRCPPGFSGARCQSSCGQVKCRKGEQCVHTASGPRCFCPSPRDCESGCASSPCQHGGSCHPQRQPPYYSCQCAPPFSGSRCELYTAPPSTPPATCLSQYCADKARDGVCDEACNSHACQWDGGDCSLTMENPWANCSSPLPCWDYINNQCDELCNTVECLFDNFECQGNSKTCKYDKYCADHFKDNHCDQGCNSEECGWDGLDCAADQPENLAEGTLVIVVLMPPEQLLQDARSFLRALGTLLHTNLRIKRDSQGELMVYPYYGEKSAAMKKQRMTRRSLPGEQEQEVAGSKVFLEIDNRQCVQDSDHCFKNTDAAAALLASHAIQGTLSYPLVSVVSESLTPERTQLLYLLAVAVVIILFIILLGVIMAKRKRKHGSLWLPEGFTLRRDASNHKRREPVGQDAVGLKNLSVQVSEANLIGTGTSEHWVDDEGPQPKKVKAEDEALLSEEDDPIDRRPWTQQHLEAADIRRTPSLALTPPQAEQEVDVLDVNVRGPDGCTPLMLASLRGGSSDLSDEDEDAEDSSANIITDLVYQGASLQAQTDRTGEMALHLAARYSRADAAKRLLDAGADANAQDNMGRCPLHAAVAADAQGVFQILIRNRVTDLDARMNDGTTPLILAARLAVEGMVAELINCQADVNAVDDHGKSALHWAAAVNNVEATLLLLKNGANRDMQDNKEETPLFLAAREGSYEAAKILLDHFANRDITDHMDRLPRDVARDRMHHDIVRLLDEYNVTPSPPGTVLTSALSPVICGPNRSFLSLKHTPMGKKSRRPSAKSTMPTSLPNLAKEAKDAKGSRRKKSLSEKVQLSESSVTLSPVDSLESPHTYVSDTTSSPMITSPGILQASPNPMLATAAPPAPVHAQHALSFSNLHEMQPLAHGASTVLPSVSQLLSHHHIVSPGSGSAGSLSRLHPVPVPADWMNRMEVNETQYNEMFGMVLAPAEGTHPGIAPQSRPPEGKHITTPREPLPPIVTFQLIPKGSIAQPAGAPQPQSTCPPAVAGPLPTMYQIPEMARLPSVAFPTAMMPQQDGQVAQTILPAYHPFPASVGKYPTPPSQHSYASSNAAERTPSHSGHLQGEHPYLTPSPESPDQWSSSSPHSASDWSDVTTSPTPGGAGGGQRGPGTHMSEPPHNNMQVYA
Description: as §1
Highly hydrophobic CDRs have the potential, in certain instances, to allow for unfavorable, non-specific binding by an antibody. […] Heavy chain CDR3 affinity maturation was conducted by allowing restricted changes from the parental sequence (GIFFAI; SEQ ID NO:7) as shown in FIG. 1E. Improved variants were isolated by screening them for improved JAG1 blocking ability as shown in FIG. 1F (indicated with arrows). Briefly, Fabs (1 and 10 μg/ml) were mixed with hJAG1-rb Fc (preclustered 5 μg/ml to 2 μl/ml PE-conjugated donkey anti-rabbit) and then added to hNotch2 stably transfected 293 cells. hJAG1 binding was then assessed using flow cytometry. […]

[2] = system: recombinant human Notch2 Fc fusion proteins (EGF repeat deletion constructs); assay: ELISA epitope mapping with human Notch2 Fc deletion constructs; assay type: binding; details: Fab at 10 μg/ml
Description: The binding of anti-Notch2/3 antibodies to supernatant from HEK 293 cells transfected with sequences encoding recombinant human Notch2 Fc fusion proteins comprising the full length human Notch2 protein or various human Notch2 deletion constructs containing various deletions of EGF repeats one to twelve were tested by ELISA. HEK-293 cells were transiently transfected with pcDNA 3.1 (Invitrogen) with hNotch2 cDNA's encoding for the indicated amino acids fused to the constant region of human IgG (hFc). Supernatants were harvested 48 hours later. To capture hN2hfc proteins, 96 well plates were first coated with goat anti-human Fc gamma specific IgG (Jackson Immunochemicals, #109-006-098) at 100 ng per well in sodium bicarbonate buffer overnight at 4°. Plates were washed and blocked in 5% bovine serum/PBS-Tween-20. Supernatants were added to plates and incubated at room temperature for 1 hour. Plates were washed in P135-T. 59R1 Fab was added at 10 μg/ml in 5% serum/PBS-T and incubated at room temperature for 1 hour. Plates were washed in PBS-T. Fab binding was detected by goat anti-human Fab specific antibody conjugated to horseradish peroxidase (Thermo, #31414) diluted 1:5000 in 5% serum/PBS-T for 1 hour at room temperature. Plates were washed and developed with 1 Step Ultra TMB (Thermo, #34028). Plates were read on a Perkin Elmer Victor 1420 plate reader. […] (FIG. 3A).

[3] = system: human Notch2 EGF deletion and point mutants; assay: FACS epitope mapping with full-length hNotch2 deletion and point mutants; assay type: binding; details: HEK 293, 10 μg/ml
Description: Point mutations were made within EGF10 of Notch2 fusion proteins and binding of 59R1 to each EGF10 mutant was determined by FACS analysis. HEK-293 cells were transiently transfected with the indicated Notch expression plasmid and GFP as a transfection control. GFP positive cells indicated expression of the transgene. The 59R1 Fab antibody was added to the cells at 10 μg/ml and detected by PE-conjugated goat anti-human (Jackson Immunochemicals).
FACS analysis of HEK-293 cells transiently transfected with the indicated Notch expression plasmid and GFP as a transfection control. GFP positive cells indicate expression of the transgene. Anti-Notch2 (59M70) was added at 20 μg/ml and detected by PE-conjugated goat anti-mouse (Caltag, #3004-4). 59R1 (IgG2) was added to the cells at 2 μg/ml and detected by PE-conjugated goat anti-human Fc gamma specific (Jackson Immunochemicals). Ligand binding was determined by incubation of the cells with human DLL4 extracellular domain (ECD) fused to rabbit IgG constant region at 5 μg/ml and detected by PE-conjugated donkey anti-rabbit.
A comparison analysis of the EGF 10 regions of human Notch1, Notch2, and Notch4 and the EGF 9 region of human Notch3 (the equivalent of EGF 10 in the other Notch receptors) was performed to determine likely binding sites for 59R1 (FIG. 14A). […] Binding to the mutants was determined by FACS analysis (FIGS. 14B and 14C). […]

T1 sequence (Q04721 26-2471): as above

B1: 59R1 Fab: Fab from phage display that bound the human Notch2 receptor and blocked binding of Jagged1; SEQ ID NO:11 and 12 (antibody, listed as Homo sapiens, V domains shown)
VL: MKKTAIAIAVALAGFATVAQADIVLTQSPATLSLSPGERATLSCRASQSVRSNYLAWYQQKPGQAPRLLIYGASSRATGVPARFSGSGSGTDFTLTISSLEPEDFAVYYCQQYSNFPITFGQGTKVEIKR
VH: MKQSTIALALLPLLFTPVTKAQVQLVESGGGLVQPGGSLRLSCAASGFTFSSSGMSWVRQAPGKGLEWVSVIASSGSNTYYADSVKGRFTISRDNSKNTLYLQMNSLRAEDTAVYYCARGIFFAIWGQGTLVTVSSA
binding to human Notch2 (FACS) (human Notch2): good binding
blocking of hJagged1 binding to human Notch2 (FACS) [1]: good blocking activity
ELISA binding to Notch2 Fc fusion proteins with EGF repeat deletions [2]: bound only to supernatant from cells expressing recombinant Notch2 proteins comprising EGF10
FACS binding to full length Notch2 with EGF11 or EGF12 deleted [3]: retained
